PubChem BioAssay AID624417 (National Center for Advancing Translational Sciences (NCATS), 2012)
In all, about 410,000 compounds went through this assay and about 6,400 (1.6%) were called active. Inconclusive means that the source gave no clear call. Such entries were picked first, then a sample of the others. Calls follow the shape of the dose curve; as a rule, active = well fitted inhibition curve with a large enough effect; inconclusive = small, poorly fitted or top-dose-only effect; inactive = no such curve, though single readings can be large or run the other way. Potencies of inconclusive entries are doubtful fits and often do not repeat.

Molecular target: Glucagon-like peptide 1 receptor (Homo sapiens) (UniProt P43220)
Chain of UniProt P43220 (P43220 whole entry, looked up): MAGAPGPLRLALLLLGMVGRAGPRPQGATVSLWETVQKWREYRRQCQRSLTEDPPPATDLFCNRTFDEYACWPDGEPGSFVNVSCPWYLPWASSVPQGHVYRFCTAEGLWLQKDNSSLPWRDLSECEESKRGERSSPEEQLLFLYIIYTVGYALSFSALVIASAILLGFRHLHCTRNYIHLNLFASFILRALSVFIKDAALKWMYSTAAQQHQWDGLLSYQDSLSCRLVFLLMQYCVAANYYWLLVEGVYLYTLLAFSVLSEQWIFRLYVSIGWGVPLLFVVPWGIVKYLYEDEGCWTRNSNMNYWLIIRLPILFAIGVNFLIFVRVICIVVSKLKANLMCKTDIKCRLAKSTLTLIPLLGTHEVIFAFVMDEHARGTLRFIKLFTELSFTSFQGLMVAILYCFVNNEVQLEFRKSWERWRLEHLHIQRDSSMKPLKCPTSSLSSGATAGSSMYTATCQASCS
Assay: qHTS of GLP-1 Receptor Inverse Agonists (Inhibition Mode); also: nearly all actives have a fitted effect of over 55% in size
Conditions: HEK293 GLP-1R CRE-luciferase, luminescence, 24 h, GLP-1R form is constitutively active; activity change, negative = inhibition: at 38.3 µM (top of the series) unless noted
Outline: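 Stable HEK293 clone (constitutively active GLP-1R + cAMP-response luciferase); 200 cells/uL plated, 12 h pre-culture, compound 24 hr, 37 deg C/5% CO2; detection reagent 12 min RT; luminescence.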
% is scaled to controls: 0 for no effect and ±100 for the full control effect; potency is read from the fitted curve at half-maximal effect; tags tell the direction and shape of the fitted curve.

| Structure (SMILES) | Potency | activity change, negative = inhibition |
| --- | --- | --- |
| Cc1ccc(CN2CCN(Cc3cccn3-c3nccs3)CC2CCO)cc1 (stereo unspecified) | inconclusive: 28.2 µM [inhibitor, single point] |  |
| CNc1sc(C(=O)c2ccccc2F)c(N)c1-c1nc2ccccc2s1 | inactive |  |
| CCN(CC(=O)Nc1ccccc1C(F)(F)F)C(=O)CCOc1ccccc1C | inconclusive: 31.6 µM [inhibitor, single point] |  |
| CCc1ccc(S(=O)(=O)N2CCN(C(=O)C3CCN(C(C)=O)CC3)CC2)cc1 | inactive |  |
| O=C(Nc1ccc(Br)cc1)C1C2C=CC3(O2)C1C(=O)N(CCN1CCCCC1)C3C(=O)NC1CCCCC1 (stereo unspecified) | inconclusive: 10 µM [inhibitor, partial curve, poor fit] |  |
| CC(C)c1ccc(NC(=O)c2sccc2-n2cccc2)cc1 | inconclusive: 0.891 µM [inhibitor, full curve, poor fit] |  |
| CC(C)(C)OC(=O)CNC(=O)c1[nH]cnc1C(=O)NCCCCCNC(=O)OC(C)(C)C | inconclusive: 28.2 µM [inhibitor, single point] |  |
| CC(C)CCn1c(SCc2cccc(F)c2)nc2ccsc2c1=O | inconclusive: 28.2 µM [inhibitor, single point] |  |
| Cc1cc(C(=O)COC(=O)c2ccc[nH]c2=O)c(C)n1-c1ccccc1 | inconclusive: 11.2 µM [inhibitor, partial curve] |  |
| CC1CCc2nc(NC(=O)CN3CCN(c4ccc(F)cc4)CC3)sc2C1 (stereo unspecified) | inconclusive: 11.2 µM [inhibitor, partial curve, poor fit] |  |
| Cn1cc(-c2cc3n(n2)CCC(=O)N3CCCC(=O)NCc2ccccc2Cl)c2ccccc21 | inactive |  |
| CCc1ccc(N2CC(C(=O)NCCC3=CCCCC3)CC2=O)cc1 (stereo unspecified) | inconclusive: 28.2 µM [inhibitor, single point] |  |
| COc1ccc(NC(=O)c2ccc(CN(c3cc(Cl)ccc3C)S(=O)(=O)c3ccccc3)cc2)cc1OC | inconclusive: 1.26 µM [inhibitor, partial curve, poor fit] |  |
| COc1ccc(C(=O)NC(=S)Nc2ccccc2N2CCOCC2)cc1[N+](=O)[O-] | inconclusive: 11.2 µM [inhibitor, partial curve, poor fit] |  |
| COc1cccc(NC(=O)CN2C(=O)COc3ccc(S(=O)(=O)N4CCC(C)CC4)cc32)c1 | inconclusive: 11.2 µM [inhibitor, partial curve, poor fit] |  |
| O=C(C1CCC(Cn2c(=O)c3sccc3n(Cc3ccc(F)cc3)c2=O)CC1)N1CCOCC1 (stereo unspecified) | inactive |  |
| Cc1ccccc1NC(=O)NC(C)(C)CC(C)(C)C | inconclusive: 28.2 µM [inhibitor, single point] |  |
| CCOc1cc(/C=C2\CN(CC)C/C(=C\c3ccc(O)c(OCC)c3)C2=O)ccc1O | active: 10 µM |  |
| CCCCNc1c(-c2ccc(-c3ccc(C(C)=O)cc3)c(OC)c2)nc2cc(C)ccn12 | inconclusive: 14.1 µM [inhibitor, single point] |  |
| CC(=C/c1ccccc1)/C=N/n1c(C)n[nH]c1=S | inconclusive: 14.1 µM [inhibitor, single point] |  |
| CC(=O)Oc1c(-c2ccco2)oc2ccccc2c1=O |  | inactive: 7.38% [at 0.307 µM] |

| Structure (SMILES) | Potency | activity change, negative = inhibition |
| --- | --- | --- |
| COc1ccc(N(CC(=O)Nc2c(C)n(C)n(-c3ccccc3)c2=O)S(=O)(=O)c2ccc(C)cc2)cc1 | inconclusive: 3.55 µM [inhibitor, full curve, poor fit] |  |
| CCN1CCN(c2cc(SC(C)C)nc(-c3ccc(OC)cc3)n2)CC1 | inactive |  |
| COc1ccc(OC)c(CNC(=O)CCc2cn(C)c3ccccc23)c1 | inconclusive: 20 µM [inhibitor, partial curve, poor fit] |  |
| CCOC(=O)c1cccc(NC(=O)[C@H](CSCc2ccccc2)N2Cc3ccccc3C2=O)c1 | inconclusive: 22.4 µM [inhibitor, single point] |  |
| CCOC(=O)N1CCC(N(CCN(C)C)C(=S)Nc2cccc(C)c2)CC1 | inactive |  |
| COC(=O)[C@]12CCCCC=C1N(Cc1ccc(Cl)cc1Cl)C(=O)[C@H](CC(=O)NCc1cccc(C(F)(F)F)c1)C2 | inconclusive: 14.1 µM [inhibitor, partial curve, poor fit] |  |
| CS(=O)(=O)Nc1ccc(C(=O)Nc2ccc3ccccc3c2)cc1 | inconclusive: 1.26 µM [inhibitor, partial curve, poor fit] |  |
| COc1ccccc1C(=O)Nc1nc(-c2ccc3c(c2)OCCO3)cs1 | inconclusive: 28.2 µM [inhibitor, single point] |  |
| CC(=O)Nc1cc(C(=O)N(C)Cc2ccco2)ccc1Sc1ccc(Cl)cc1 | inconclusive: 28.2 µM [inhibitor, single point] |  |
| COc1cc2oc(=O)cc(-c3cccc(-c4ccc(C(F)(F)F)cc4)c3)c2c(OC)c1OC | inconclusive: 12.6 µM [inhibitor, partial curve, poor fit] |  |
| O=C(NCC1CCCO1)C(=Cc1cccc([N+](=O)[O-])c1)C(=O)NCC1CCCO1 (stereo unspecified) | inconclusive: 12.6 µM [inhibitor, single point] |  |
| Cc1ccccc1CC1(CO)CCCN(C(=O)c2ccccc2Cl)C1 (stereo unspecified) | inconclusive: 14.1 µM [inhibitor, partial curve, poor fit] |  |
| Nc1nonc1-n1nnc(C(=O)N/N=C/c2ccccc2Cl)c1-c1ccc2c(c1)OCO2 | inconclusive: 11.2 µM [inhibitor, partial curve, poor fit] |  |
| CCN(CC)S(=O)(=O)c1ccc2[nH]c(=O)cc(C(=O)Nc3ccc(C)c(S(=O)(=O)N(CC)CC)c3)c2c1 | inconclusive: 15.8 µM [inhibitor, single point] |  |
| Cc1ccc(S(=O)(=O)/N=C2\C=C(Nc3cccc(C(=O)O)c3)C(=O)c3ccccc32)cc1 | inactive |  |
| Cc1ccc(-c2nn(-c3ccccc3)cc2CN(Cc2ccccc2)C(=O)c2ccco2)o1 | inconclusive: 28.2 µM [inhibitor, single point] |  |
| O=C(Nc1nc2c(Br)cccc2s1)C1CC1 | inconclusive: 28.2 µM [inhibitor, single point] |  |
| NS(=O)(=O)c1ccc(CNC(=O)c2ccc3ccccc3n2)cc1 | inactive |  |
| COCCN1Cc2cc3cc(C)ccc3nc2SC1=Nc1cccc(OC)c1 | inconclusive: 10 µM [inhibitor, partial curve, poor fit] |  |
| CCOC(=O)N1CCC(N2Cc3cccc(C(=O)N4CC(C)CC(C)C4)c3C2=O)CC1 (stereo unspecified) | inconclusive: 3.98 µM [inhibitor, partial curve, poor fit] |  |
| CC(C)C1OC(c2cccc(NC(=O)c3cccs3)c2)OCC1(C)C (stereo unspecified) |  | inconclusive: -43.7% [inhibitor] [at 7.66 µM] |

| Structure (SMILES) | Potency | activity change, negative = inhibition |
| --- | --- | --- |
| Clc1cccc(-n2ncc3c(NCCCc4ccccc4)ncnc32)c1 | inconclusive: 28.2 µM [inhibitor, single point] |  |
| NC(=O)C1CCN(C(=O)c2cc(S(=O)(=O)N3CCOCC3)ccc2Cl)CC1 | inactive |  |
| Cc1nn(Cc2ccc(Cl)cc2)c(C)c1NC(=O)c1cc(C(C)C)on1 | inconclusive: 7.08 µM [inhibitor, partial curve, poor fit] |  |
| CCCN(CCC)C(=O)c1c(NC(=O)CC)sc2c1CCCCC2 | inconclusive: 28.2 µM [inhibitor, single point] |  |
| O=S(=O)(c1ccc(SCc2ccccc2)nc1)N1CCCC1 | inconclusive: 28.2 µM [inhibitor, single point] |  |
| O=[N+]([O-])c1ccc(N2CCN(C(=S)NCc3ccc(Cl)cc3)CC2)cc1 | inconclusive: 4.47 µM [inhibitor, partial curve, poor fit] |  |
| COc1ccccc1NC(=S)N(CCCN1CCOCC1)Cc1cn(C)c2ccccc12 | inconclusive: 31.6 µM [inhibitor, single point] |  |
| CCOC(=O)c1c(NC(=S)NCCc2ccccc2)sc2c1CC(C(C)C)OC2 (stereo unspecified) | inactive |  |
| O=c1cc(-c2ccccc2Cl)oc2cc(O)cc(O)c12 | inactive |  |
| O=C(NCCSc1c(-c2ccc(Br)cc2)[nH]c2ccccc12)c1ccc(S(=O)(=O)N2CCOCC2)cc1 | inactive |  |
| CS(=O)(=O)c1sc(C#N)c2c1C(=O)CC(c1ccccc1)C2 (stereo unspecified) | inconclusive: 28.2 µM [inhibitor, single point] |  |
| Cc1ccc(CNC(=O)C(CC(C)C)N2Cc3ccccc3C2=O)cc1 (stereo unspecified) | inconclusive: 20 µM [inhibitor, single point] |  |
| NC(=O)[C@H]1CC2(CC(c3cccc(NC(=O)COc4ccc(Cl)cc4)c3)=NO2)CN1C(=O)c1ccccc1C(=O)c1ccccc1 (stereo partly specified) | inconclusive: 11.2 µM [inhibitor, single point] |  |
| CCCc1ccc(OCc2ccc(C(=O)NN)o2)c(OC)c1 | inconclusive: 28.2 µM [inhibitor, single point] |  |
| Cc1ccc(C(=O)Nc2cccc3ccccc23)cc1 | inconclusive: 31.6 µM [inhibitor, single point] |  |
| Cc1ccc(NC2=CC(=O)C(=O)c3ccccc32)cc1 | inconclusive: 28.2 µM [inhibitor, single point] |  |
| CCOCCCNC(=O)c1cc2sc(Cl)cc2n1CC | inconclusive: 0.501 µM [inhibitor, full curve, poor fit] |  |
| O=C(CSCc1cccc(Cl)c1)Nc1ccccc1-c1ccccc1 | inconclusive: 11.2 µM [inhibitor, partial curve, poor fit] |  |
| O=C(CSc1ncnc2scc(-c3ccc(F)cc3)c12)c1ccc2c(c1)OCCO2 | inconclusive: 8.91 µM [inhibitor, partial curve, poor fit] |  |
